Some of the results follow.

The labels stand for the following.
B1: chr1:108700024:108700125:+|3pUTR|ENSG00000134186|msi1|FALSE|bound_elsewhere (ssRNA)
RNA: GGGAGUUCUACAGUCCGACGAUCCACAUUGAAUCCUAUAAAUGAUUAAAUCUGCUUUUUUCCCCCACGUUGAGAUUGUGCAGUAGUUCGCACUCCUCAAGCUCUCCCUGUAGGCUGCAUUUUCAUUUCCUCUUUCGUGUAGGGCAACAGAGGAUUGAGCAUCA
B2: chr1:64832709:64832810:+|3pUTR|ENSG00000162437|msi1|total|mutant (ssRNA)
RNA: GGGAGUUCUACAGUCCGACGAUCACAGCCCGAAAGUUUAAGGUAAUUUCUAAGUAUACUACCUAUAAGUAACUGAUAAGAAUCCGGCAUCAUUCAGUGAUACCGCAGAUGACUAAUGGGUUUUUCAGGCCCUGCACUUCUCUUCAACAGAGGAUUGAGCAUCA
B3: chr8:38210141:38210254:+|CDS|ENSG00000156735|unk|FALSE|unique (ssRNA)
RNA: GGGAGUUCUACAGUCCGACGAUCGCUGAGCCUCAGCUGUAUGGUAAUGCCACCAGUGACCAUCCCAACAAUCAAGAUCAAAGUAGCAGUCUUCCUGAAGAAUGUGUACCUUCAGAUGAAAGUACUCCUCCGAGUAUUAAAAAACAACAGAGGAUUGAGCAUCA
B4: chr11:10511672:10514915:-|three_prime_utr|ENSG00000110315|control|control|control (ssRNA)
RNA: GGGAGUUCUACAGUCCGACGAUCGAAGUGAAAGUCUUCUGUUGCUAUUGUGGGCUCAAAUAUUUGGUCAUGGGGGAAGAAUGUAGGGUUGUGGCACUGGCACAGACACAGGAAAAUCCAUUUUCCCCACUCUUUUAUUUUUGCCAACAGAGGAUUGAGCAUCA
B5: chr4:173322470:173322571:+|3pUTR|ENSG00000109586|msi1|total|mutant (ssRNA)
RNA: GGGAGUUCUACAGUCCGACGAUCUGCCGCAUUCACUCCCUUACCUACUGGCAUUCCCAGUGCCCUCUGUCCAUACCUACUUCCCGGAUUGCAAAGGAGUCUUCCAACCCGAGAAAAAUUGUCCACUGACAUUUGGGAUUUACUCAACAGAGGAUUGAGCAUCA
B6: ENSG00000198589:be:win_7151|CDS|ENSG00000198589|bound_else_gene|NA|bound_elsewhere_windowed (ssRNA)
RNA: GGGAGUUCUACAGUCCGACGAUCCUUGGGCCAAAACCUCAGAAGAAUUUGUUCACAUAAACAGAUUGGCCCUGGAGAGUGAAUUUGUUUCCUGCCAGCUUCACCAAUGGAUUGAUCUCAUUUUUGGCUAUAAACAGCAAGGACCAACAGAGGAUUGAGCAUCA
B7: ENSG00000151612:stop:overlap|stop_codon|ENSG00000151612|stop_codon|NA|stop_codon (ssRNA)
RNA: GGGAGUUCUACAGUCCGACGAUCCAGGCCUGUUGGAGAAGGAAGCCAGCAGUGAGGGGGAUUGCAAAGUAGAGAGAGGUUGGUAGAACUGUGGACUGUGAAGAGAUCGAGAAUAGCACAGUUAACUAGGCAUUUGCCUUCGGCCAACAGAGGAUUGAGCAUCA
B8: chr8:88167829:88167930:-|CDS|ENSG00000156103|msi1|total|mutant (ssRNA)
RNA: GGGAGUUCUACAGUCCGACGAUCCUUUGAUGUGUGGCAGAAUGUAACUCCUCUGACAUUUGAAGAAGUUCCCUACAGUGAAUCCGAAAAUGGCAAACGUGAUGUGGAUAUAACCAUUAUUUUUGCAUCUGGUUUCCAUGGGGACAACAGAGGAUUGAGCAUCA
B9: chr10:60791946:60792061:+|CDS|ENSG00000170312|unk|total|mutant (ssRNA)
RNA: GGGAGUUCUACAGUCCGACGAUCGUCAGCUCGUUACUCAACUCCAGUUGACAUUUGGAGUACCGGCACCAUAUUUGCUGAACCCGCAACUAAGAAACCACUUUUCCAUGGGGAUUCAGAAAUUGAUCAACUCUUCAGGAUUUUCAACAGAGGAUUGAGCAUCA
B10: chr17:15229982:15230086:-|3pUTR|ENSG00000109099|msi1_unk|total|mutant (ssRNA)
RNA: GGGAGUUCUACAGUCCGACGAUCUCAUAAAGCCUUCAUCACUCCCACAUUUUUCUUACGGUCGGAGCAUCAGAACAAGCGUCCCGACUCCUUGGGACCGUGAGUUCCCCGAGCUUGGCUGGGUCCCGGCUGUUCUGUGCCUCCCAACAGAGGAUUGAGCAUCA
B11: chr20:3582170:3582271:+|CDS|ENSG00000088812|msi1|FALSE|bound_elsewhere (ssRNA)
RNA: GGGAGUUCUACAGUCCGACGAUCGGCCUUCGGAAGAUCAAUGUGUCCUACUGGUGCUGGGAAGAUAUGUCCCCAUUUACAAAUAGUUUACUACAGUGGAUGCCGUCUGAGCCCAGUGAUGCUGGAUUCUGUGGAAUUUUAUCACAACAGAGGAUUGAGCAUCA
B12: chr20:50583650:50583751:+|3pUTR|ENSG00000196396|msi1|total|mutant (ssRNA)
RNA: GGGAGUUCUACAGUCCGACGAUCUUCCUAAGCCUGUUGCUGAAGUCAUUGUCGCUCAGCAACCGGGUGCAGUUUUCCAGGAACCGGCAUUUGCCUAAUUCCUGGCAUGACACUCCCGUGACUUCCUGGUGAGGCCCAGCCUGUCAACAGAGGAUUGAGCAUCA
B13: chr10:74118286:74118577:+|3pUTR|ENSG00000035403|msi1|FALSE|unique (ssRNA)
RNA: GGGAGUUCUACAGUCCGACGAUCGUAUUCUCAAACACAGUUACACUUGUGCACCCUCUAUCCCAAUAGGCAGACUGGGUUUCUAGCCCAUGGACUUCACAUAAGCUCAGAAUCCAAGUGAACACUAGCCAGACACUCUGCUCUCAACAGAGGAUUGAGCAUCA
B14: chr9:86945015:86945116:-|3pUTR|ENSG00000180447|msi1|total|mutant (ssRNA)
RNA: GGGAGUUCUACAGUCCGACGAUCUUGGUUUUGGAUAAGUUUGAGCCCUUGACCUUAAUUUCAUUGCUACCACUCUGAUCUCUCCGCACAUUUCUCCGGAUUAAGGGUCCAAAAAUGCUGAUCUAAGGGGUUGCCAUGGUGUUGCAACAGAGGAUUGAGCAUCA
B15: chr1:32196422:32196614:+|3pUTR|ENSG00000084652|msi1|total|mutant (ssRNA)
RNA: GGGAGUUCUACAGUCCGACGAUCACAGUUGUUUCUGUGUCCUGUUCUACCCCCACUCCAGUACAUAACUACUAUGUACUGUGCCGAGCCAUUCUAUAUGCUGAAUGUUCUGCUGUUGCAAACUUGCCAGGGUAUCCGCCAGUGCAACAGAGGAUUGAGCAUCA
B16: chr10:92030471:92030572:+|3pUTR|ENSG00000095564|unk|FALSE|unique (ssRNA)
RNA: GGGAGUUCUACAGUCCGACGAUCUAUUUUUUUAUUAACUAUUUAUUUGCUAGUUCCAUAAACCAGCUCUUUAACAUAGCUUAUAGUAAUUGAUAUUUUCUUAGAAUAAGUACAGAGCAAUAUAUCAUUAAAGGGCUAUGAAGGCAACAGAGGAUUGAGCAUCA
B17: ENSG00000124766:be:win_3351|3pUTR|ENSG00000124766|bound_else_gene|NA|bound_elsewhere_windowed (ssRNA)
RNA: GGGAGUUCUACAGUCCGACGAUCCCACCCUCCGGCCCCCGUCUUGUAAAAAGGGGAGGAGAAUUAGCCAAACACUGUAAGCUUUUAAGAAAAACAAAGUUUUAAACGAAAUACUGCUCUGUCCAGAGGCUUUAAAACUGGUGCCAACAGAGGAUUGAGCAUCA
B18: chr12:65247554:65247656:+|3pUTR|ENSG00000174106|unk|FALSE|unique (ssRNA)
RNA: GGGAGUUCUACAGUCCGACGAUCCAGUAUUUAAUUUGUUUCAGUAAACUUACUUUAUUACUGUUUAUGAUUUCAGAUAAAAAUAGUUGCUGAGUAAAUUUUACUUGUAAUCUACAAUUGGCUUUUUAAAAAUAACCUGUUGAUCAACAGAGGAUUGAGCAUCA
B19: chr18:33333173:33333394:-|CDS|ENSG00000166960|control|control|control (ssRNA)
RNA: GGGAGUUCUACAGUCCGACGAUCACAUUUUGAAAAACAAAAGACAGAGUUAGAAGAAGCAAAUGCAAAGAUUCAAGCAGACAUAGACUACAUGAAUGAACAUGGCCCUCUACUGGACUCUAAGCAGAAUCAGGAACUUCAAGACAACAGAGGAUUGAGCAUCA
B20: chr10:43184366:43184487:+|3pUTR|ENSG00000169826|unk|FALSE|bound_elsewhere (ssRNA)
RNA: GGGAGUUCUACAGUCCGACGAUCUAGUUUAUUUGAGCCAGCUCUAUCAGGGUCUUCCCAUGGUGGUUCAGAAUAGAUGAGCAUAGCAUGGUUUUGUUUGUUUUUGCUUUCAAUUUUCUAAUUUGGCAUGGAUCCAUAUGUAUUCAACAGAGGAUUGAGCAUCA
B21: chrX:65741246:65741425:+|3pUTR|ENSG00000147065|msi1|FALSE|unique (ssRNA)
RNA: GGGAGUUCUACAGUCCGACGAUCUAUUAUGUACUCUACUGAUAUCUAAAUAUUGAUUUCUGCCUUCCUUGCUAAUGCACCAUUAGAAGAUAUUAGUCUUGGGGCAGGAUGAUUUUGGCCUCAUUACUUUACCACCCCCACACCCAACAGAGGAUUGAGCAUCA
B22: chr6:144094883:144095236:-|three_prime_utr|ENSG00000169976|control|control|control (ssRNA)
RNA: GGGAGUUCUACAGUCCGACGAUCUCCGCGUACAGAAGUGCUUGCCCGGGGAGUCCCGCCUGACCUGCCUUCAUGUGGACCCUUAGAACAGCACUGGGAGACCAGCAGGACUCCUGAGAACUGUGCUGGUGGAGAGGUCCUAGACAACAGAGGAUUGAGCAUCA

This assay concerns the target MSI1 full-length (mouse, UniProt Q61474 1-362). As to the kind of experiment: nsRBNS (natural sequence RNA bind-n-seq); RBNS binding buffer (assumed for nsRBNS): 25 mM Tris pH 7.5, 150 mM KCl, 3 mM MgCl2, 0.01% Triton X-100, 500 ug/ml BSA, 20 U/ml SUPERase-In, 4 C; UNK is unkempt and MSI1 is Musashi-1; names of the RNAs are library labels; protein concentration not given here; high values mean tight binding.
Chain of UniProt Q61474 (Q61474 whole entry): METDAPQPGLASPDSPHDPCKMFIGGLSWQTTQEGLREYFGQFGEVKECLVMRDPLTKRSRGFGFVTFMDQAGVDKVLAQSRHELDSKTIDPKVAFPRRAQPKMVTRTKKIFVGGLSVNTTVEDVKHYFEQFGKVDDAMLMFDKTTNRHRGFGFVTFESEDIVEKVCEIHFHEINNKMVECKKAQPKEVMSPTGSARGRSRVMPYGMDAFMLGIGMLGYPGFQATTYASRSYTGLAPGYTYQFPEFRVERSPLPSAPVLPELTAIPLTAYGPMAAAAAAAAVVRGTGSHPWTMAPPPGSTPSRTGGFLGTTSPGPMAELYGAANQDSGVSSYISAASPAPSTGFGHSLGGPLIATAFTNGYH
The molecule B1 came in with a binding signal of 1.7 enrichment R. In turn, B2 returned a binding signal of 0.266 enrichment R. B3 registered a binding signal of 0.453 enrichment R. Then B4, with 0.486 enrichment R. To B5 belongs 0.767 enrichment R; to B6, 0.335 enrichment R; to B7, 3.25 enrichment R. To B8 belongs 0.209 enrichment R.

Take B9: the binding signal was found to be 0.475 enrichment R. Then B10, with 0.483 enrichment R; and B11, with 0.86 enrichment R; and B12, with 0.238 enrichment R. Consider B13, for which the binding signal was 0.284 enrichment R.

Molecule B14 yielded a binding signal of 0.429 enrichment R. B15 had a binding signal of 0.319 enrichment R.

As for B16, the binding signal came out at 39.5 enrichment R. Take B17: the binding signal came to 0.735 enrichment R.

As to B18, the binding signal turned out to be 0.451 enrichment R. As to B19, the binding signal came to 0.735 enrichment R. With B20, the binding signal stood at 0.795 enrichment R. Then B21, with 1.39 enrichment R; and B22, with 0.427 enrichment R.

These data come from PMC12136788.
